In all, about 280,000 compounds went through this assay and about 540 (0.19%) were called active. The inconclusive results got no clear call from the source; some entries with a clear call stand among them for comparison. The call rests on the fitted dose curve; in most records, active means well fitted activation curve with a large enough effect; inconclusive means small, poorly fitted or top-dose-only effect; inactive means flat fitted curve, though single readings scatter. Where the call is inconclusive, the potency comes from a doubtful curve fit.
Assay: Quantitative High-Throughput Screen for Regulators of Epigenetic Control; further: nearly all actives have a fitted effect of over 60% in size
Conditions: murine LDR cells, GFP reporter derepression, 30 h; series mostly up to 53.9 µM
Procedure, shortened: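 Reporter derepression read as number of fluorescent GFP-positive objects, 20-120 um in size, counted by laser-scanning cytometer. Mouse LDR line with an epigenetically silenced CMV-GFP locus; compound incubation 30 h, 37 C.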
Potency means the concentration at half of the fitted maximal effect; tags describe the fitted curve by direction and shape.

SMILES | Potency
COc1cc(/C=C2/CCC/C(=C\c3cc(O)c(OC)c(Cl)c3)C2=O)cc(Cl)c1O | inconclusive: 25.1 µM [activator, single point]
CN(CCCn1c(=S)[nH]c2ncccc2c1=O)Cc1ccccc1 | inactive
Oc1c(CN2CCN(c3ccc(F)cc3)CC2)cc(Cl)c2cccnc12 | inconclusive: 5.62 µM [activator, single point]
O=C(Nc1ccc(NC(=O)c2sc3ccccc3c2Cl)cc1Cl)c1ccco1 | inconclusive: 0.891 µM [activator, full curve, poor fit]
O=C(Nc1ccc(F)c(Cl)c1)N1CC=C(c2c[nH]c3ccccc23)CC1 | inconclusive: 25.1 µM [activator, single point]
COc1cccc2c1C(=O)c1c(O)c3c(c(O)c1C2=O)C[C@](O)(C(=O)CO)C[C@H]3O[C@@H]1C[C@H](N)[C@H](O)[C@H](C)O1 | inconclusive: 2.82 µM [activator, single point]
Cc1ccc(-n2c(=O)c3c4c(sc3n(Cc3cccc(Cl)c3)c2=O)CCC4)cc1C | inconclusive: 14.1 µM [activator, single point]
CC(C)C(=O)N(Cc1ccccc1)S(=O)(=O)c1ccc2c(c1)oc(=O)n2C | inconclusive: 35.5 µM [activator, single point]
COc1cc(OC)cc(C(=O)Oc2c(CN3CCOCC3)cc(Cl)c3cccnc23)c1 | inconclusive: 2.82 µM [activator, single point]
COc1cc(/C=C2\CCc3c2nc2ccccc2c3C(=O)O)cc(OC)c1OC | inconclusive: 1.78 µM [activator, partial curve, poor fit]
CCN1C(=O)/C(=C/N(C(C)=O)c2ccccc2)N(c2ccccc2)C1=S | inconclusive: 35.5 µM [activator, single point]
COc1cccc(NC(=O)Cn2c(=O)n(-c3ccc(Cl)cc3)c(=O)c3oc4ccccc4c32)c1 | inconclusive: 15.8 µM [activator, single point]
CCC(=O)Nc1sc2c(c1C#N)CC(C)(CC)OC2 (configuration not stated) | inactive
COc1ccccc1NC(=S)N=Nc1c(O)[nH]c2ccc(Br)cc12 | inconclusive: 35.5 µM [activator, single point]
CCN(CC)CCCNC(=O)CSc1c2c(nc3cc(Cl)ccc13)CCCC2 | inconclusive: 0.398 µM [activator, partial curve]
COCCn1nnnc1C(c1cc2cc(C)ccc2[nH]c1=O)N1CCCCCC1 (configuration not stated) | inactive
O=[N+]([O-])c1ccc(N2N=C(c3ccco3)CC2c2ccccc2)cc1 (configuration not stated) | inconclusive: 10 µM [activator, partial curve]

Reference: PubChem BioAssay AID1865 (National Center for Advancing Translational Sciences (NCATS), 2009)
